Among the data in article PMC12627648 are binding values, retold here.

The chains behind the UniProt entries cited, without tags or fusion partners.
UniProt P42224: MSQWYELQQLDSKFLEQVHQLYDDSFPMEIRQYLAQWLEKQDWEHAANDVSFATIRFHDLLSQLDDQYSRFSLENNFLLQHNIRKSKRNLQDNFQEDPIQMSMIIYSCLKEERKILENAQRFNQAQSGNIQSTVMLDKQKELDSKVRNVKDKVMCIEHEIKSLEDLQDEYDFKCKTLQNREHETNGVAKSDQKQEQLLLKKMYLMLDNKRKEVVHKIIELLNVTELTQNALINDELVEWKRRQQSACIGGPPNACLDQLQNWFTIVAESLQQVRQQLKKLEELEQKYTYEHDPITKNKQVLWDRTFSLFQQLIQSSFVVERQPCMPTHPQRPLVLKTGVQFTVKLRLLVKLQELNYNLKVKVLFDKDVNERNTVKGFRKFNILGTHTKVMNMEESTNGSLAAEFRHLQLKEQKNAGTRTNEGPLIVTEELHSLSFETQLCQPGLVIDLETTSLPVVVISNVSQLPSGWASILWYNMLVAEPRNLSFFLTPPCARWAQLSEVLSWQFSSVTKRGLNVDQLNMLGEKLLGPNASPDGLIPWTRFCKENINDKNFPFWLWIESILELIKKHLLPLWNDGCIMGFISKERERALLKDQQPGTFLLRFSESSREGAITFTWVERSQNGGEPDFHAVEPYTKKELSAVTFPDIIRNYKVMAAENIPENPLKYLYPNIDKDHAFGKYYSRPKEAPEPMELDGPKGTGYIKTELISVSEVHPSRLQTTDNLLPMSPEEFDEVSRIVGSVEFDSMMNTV
UniProt P19474: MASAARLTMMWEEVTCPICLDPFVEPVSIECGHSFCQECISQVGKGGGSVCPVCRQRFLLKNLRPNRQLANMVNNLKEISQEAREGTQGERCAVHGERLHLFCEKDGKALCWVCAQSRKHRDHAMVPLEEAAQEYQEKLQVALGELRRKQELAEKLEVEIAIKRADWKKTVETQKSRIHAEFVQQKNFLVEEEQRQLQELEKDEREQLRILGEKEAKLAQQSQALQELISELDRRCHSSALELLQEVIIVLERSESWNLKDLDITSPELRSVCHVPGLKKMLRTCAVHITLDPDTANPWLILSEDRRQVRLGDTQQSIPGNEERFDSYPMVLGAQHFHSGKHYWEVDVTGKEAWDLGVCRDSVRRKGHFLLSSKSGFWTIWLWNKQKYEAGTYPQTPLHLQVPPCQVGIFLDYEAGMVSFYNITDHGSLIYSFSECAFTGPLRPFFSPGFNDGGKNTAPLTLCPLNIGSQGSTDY

In assay [1] the target is T1, Flag-TREM2 (UniProt Q9NZC2).
T1 sequence: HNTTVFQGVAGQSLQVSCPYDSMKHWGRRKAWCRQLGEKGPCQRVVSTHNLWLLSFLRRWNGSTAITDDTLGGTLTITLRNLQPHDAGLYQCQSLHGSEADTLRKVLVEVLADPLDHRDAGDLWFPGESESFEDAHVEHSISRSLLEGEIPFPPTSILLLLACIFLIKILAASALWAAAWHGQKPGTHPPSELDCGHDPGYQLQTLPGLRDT
As to the kind of experiment: co-IP; sequential IP assays (two successive immunoprecipitations) of TREM2, TRIM21 and STAT1.

Assay [2] has as its target T1, Flag-TREM2. As to the kind of experiment: co-IP; HEK293T cells transfected with tagged TREM2, TRIM21, STAT1 (full length or truncation mutants) or SYK; increasing doses of MYC-TRIM21 in the presence of MG132 in one panel.
Assay [3] concerns the target HA-STAT1 (full length) (UniProt P42224). Briefly: co-IP; sequential IP assays (two successive immunoprecipitations) of TREM2, TRIM21 and STAT1.
For assay [4] the target is unchanged. Briefly: co-IP; HEK293T cells transfected with tagged TREM2, TRIM21, STAT1 (full length or truncation mutants) or SYK; increasing doses of MYC-TRIM21 in the presence of MG132 in one panel.
The next assay concerns the target GST-STAT1 (UniProt P42224). Briefly: pull-down; GST fusion proteins from E. coli BL21 (DE3), Pierce GST Protein Interaction Pull-Down Kit; the SYK-STAT1 pull-down with or without TREM2.
Assay [5] deals with T2, triggering receptor expressed on myeloid cells 2 (TREM2), endogenous in TAMs (human (endogenous in THP-1-induced TAMs)) (UniProt Q9NZC2).
T2 sequence: T1 sequence
Briefly: co-IP; endogenous proteins in lysates of THP-1-induced TAMs; antibody or IgG overnight at 4 °C, protein A/G magnetic beads, four washes; also in TREM2 overexpression and knockdown TAMs.

No constants are given. Whether binding was seen depends on the method and setting. Binding seen in cells or lysates may run through a third protein. Some results given as binding are weak or reduced against the parent protein; the word gives no strength. For some of these results: Sequences can lack the tags named with a protein.

With “HA-STAT1 (full length) (from UniProt P42224 1-750)”, the binding entry in the assay with Flag-TREM2 [1] and in the assay with Flag-TREM2 [2] was “binds” each time.

Consider “Myc-TRIM21 (from UniProt P19474 1-475) (enzyme)”, for which the results for the binding result in the assay with Flag-TREM2 [1], with HA-STAT1 (full length) [3] and with HA-STAT1 (full length) [4] were “no binding”, “binds” and “binds”, respectively.

With “Tripartite Motif Containing 21 (TRIM21) (partner of GST-STAT1 in the GST pull-down) (from UniProt P19474 1-475) (enzyme)”, in the assay with GST-STAT1, the binding entry was “binds”.

On to “signal transducer and activator of transcription 1 (STAT1), endogenous in TAMs (from UniProt P42224 1-750)”, for which the binding result in assay [5] was “binds”.
